Assays:
Settings in all cases: remark: other sources report otherwise
[1] = biological target: BKV serotype I VP1 pentamer (BK virus serotype I), P03088; assay: SET (solution equilibrium titration) on VP1 pentamers
[2] = biological target: BKV serotype II VP1 pentamer (BK virus serotype II), P14996; assay: as above
[3] = biological target: BKV serotype IV VP1 pentamer (BK virus serotype IV), P14996; assay: assay and form of VP1 not given
[4] = biological target: BKV serotype II VP1 pentamer (BK virus serotype II), P14996; assay: assay and form of VP1 not given
[5] = biological target: JCV VLP (consensus) (JC virus), P03089; assay: SET (solution equilibrium titration) on JCV VLPs

B1: NEG447A (antibody, human IgG1, lambda)
heavy: QVQLQESGPGLVKPSETLSLTCTVSGGSISRDYWSWVRQPPGAGLEWIGNIYYSGSTNYNPSLKSRVTISVATNKKQFSLKLTSVTAADTAVYYCARVPGCSSTSCIDGWFDPWGQGILVTVSSASTKGPSVFPLAPSSKSTSGGTAALGCLVKDYFPEPVTVSWNSGALTSGVHTFPAVLQSSGLYSLSSVVTVPSSSLGTQTYICNVNHKPSNTKVDKRV[sequence of human IgG1 Fc omitted]
light: QSVLTQPPSVSAAPGQKVTISCSGSSSNIGNTYVSWYQQLPGTAPKLLIYDNNKRPSGIPDRFSGSKSGTSATLGITGLQTGDEADYYCGTWDSSLSAWVFGGGTRLTVLGQPKAAPSVTLFPPSSEELQANKATLVCLISDFYPGAVTVAWKADSSPVKAGVETTTPSKQSNNKYAASSYLSLTPEQWKSHRSYSCQVTHEGSTVEKTVAPTECS
For B1, the Kd [1] was 0.9 pM, the Kd [2] was 9.6 pM and the fold greater affinity (against NEG447) [3] was 10 fold. For the same binder, the fold greater affinity (against NEG447) [4] was 3 fold.

B2: P8D11 (antibody, human IgG1, lambda)
heavy: QVQLVESGGTLVQPGGSLRLSCAASGFTFNNYWMTWVRQAPGKGLEWVANIKKDGSEKYYVDSVRGRFTISRDNAKNSLFLQMNSLRPEDTAVYFCATVRSGRYFALDDWGQGTLVTVSSASTKGPSVFPLAPSSKSTSGGTAALGCLVKDYFPEPVTVSWNSGALTSGVHTFPAVLQSSGLYSLSSVVTVPSSSLGTQTYICNVNHKPSNTKVDKRV[sequence of human IgG1 Fc omitted]
light: QSVLTQPPSVSVAPGKTARITCGGDNIGSRPVHWYQQKPGQAPILVVYDDSNRPSGIPERFSGSNSGNTATLTISRVEAGDEADYYCQVWSSSTDHPFGGGTKVTVLGQPKAAPSVTLFPPSSEELQANKATLVCLISDFYPGAVTVAWKADSSPVKAGVETTTPSKQSNNKYAASSYLSLTPEQWKSHRSYSCQVTHEGSTVEKTVAPTECS
With B2 the Kd [5] was 436 pM.
